Laboratory results from the supplement of paper PMC10320760.
The data scatter; read single values as rough.

B1: Ydj1; a variant is named by its letters at X, in order (parent)
chain: MVKETKFYDILGVPVTATDVEIKKAYRKCALKYHPDKNPSEEAAEKFKEASAAYEILSDPEKRDIYDQFGEDGLSGAGGAGGFPGGGFGFGDDIFSQFFGAGGAQRPRGPQRGKDIKHEISASLEELYKGRTAKLALNKQILCKECEGRGGKKGAVKKCTSCNGQGIKFVTRQMGPMIQRFQTECDVCHGTGDIIDPKDRCKSCNGKKVENERKILEVHVEPGMKDGQRIVFKGEADQAPDVIPGDVVFIVSERPHKSFKRDGDDLVYEAEIDLLTAIAGGEFALEHVSGDWLKVGIVPGEVIAPGMRKVIEGKGMPIPKYGGYGNLIIKFTIKFPENHFTSEENLKKLEEILPPRIVPAIPKKATVDECVLADFDPAKYNRTRASRGGANYDSDEEEQGGEGVQCXXX

Variants of: B1
Assay: enrichment factor, frequency at 37 °C / frequency at 25 °C (thermotolerance selection) (ratio); higher = more growth at 37 °C, higher likelihood of farnesylation
Conditions: with Saccharomyces cerevisiae ydj1Δ (yWS304); selective temperature 37 °C; reference temperature 25 °C
Description: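 Pooled library of all 8,000 Ydj1-CXXX C-terminal motif variants (native CASQ replaced by C + three variable residues, one codon per amino acid) expressed from a CEN plasmid in S. cerevisiae ydj1Δ (yWS304). The library was grown in SC-Ura liquid to A600 ~2 (~8 generations) at permissive 25 °C or selective 37 °C. Reads from 8 and 7 replicates were pooled and variants counted by NGS. Enrichment factor = frequency at 37 °C / frequency at 25 °C, with a +1 correction; it reports Ydj1-dependent thermotolerance, used as a read-out of farnesylation by yeast FTase.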

Variant | enrichment factor
WIC | 5.21
RHI | 1.43
RHS | 1.6
RHV | 1.49
RHL | 0.693
RHK | 0.137
RHM | 1.47
RHG | 0.638
RHN | 1.4
RHT | 1.79
RHW | 0.518
RHH | 1.91
RHP | 0.116
RHQ | 1.37
RHR | 0.139
RHY | 0.375
VHN | 1.68
VHP | 0.13
VHM | 3.09
VHV | 2.15
VHL | 3.13
VHR | 0.15
VHS | 2.53
VHK | 1.24

Variant | enrichment factor
VHH | 1.78
VHY | 2.2
VHT | 2.2
VHQ | 1.48
VHI | 3.34
VHG | 1.5
VHW | 1.59
AHS | 1.8
AHH | 1.73
AHT | 1.81
AHR | 0.129
AHW | 1.42
AHP | 0.158
AHY | 1.36
AHV | 1.65
AHQ | 1.48
AHL | 1.8
AHN | 1.94
AHM | 1.5
AHI | 1.83
AHK | 0.386
DIA | 1.32
DIC | 1.69
WHP | 1.52

Variant | enrichment factor
WHM | 2.06
WHG | 1.47
WHQ | 1.75
WHL | 2.08
WHN | 1.73
WHH | 1.73
WHT | 2.04
WHR | 0.299
WHV | 1.65
WHW | 1.38
WHY | 1.85
WHK | 0.161
WHI | 2.04
WHS | 1.8
THI | 1.83
THY | 1.72
THM | 1.5
THR | 0.122
THP | 0.108
THS | 1.59
THQ | 1.48
THN | 1.67
THH | 1.89
THG | 1.67

Variant | enrichment factor
THW | 0.984
THV | 2.38
THK | 0.274
THT | 1.6
THL | 1.42
DHW | 0.196
DHQ | 1.6
DHV | 0.624
DHG | 0.234
DHT | 0.186
DHN | 0.184
DHI | 0.212
DHY | 0.158
DHP | 0.0708
DHS | 0.399
DHL | 0.16
DHM | 1.82
DHR | 0.145
DHH | 0.15
DHK | 0.158
NHR | 0.226
NHM | 1.9
NHI | 1.58
NHP | 0.153

Variant | enrichment factor
NHN | 2.23
NHW | 0.421
NHL | 1.11
NHV | 2.53
NHY | 0.579
NHQ | 1.62
NHS | 1.82
NHT | 1.71
NHK | 0.593
NHH | 1.9
QIA | 2.94
QIC | 1.47
RIA | 1.13
RIC | 0.982
CHR | 0.147
CHG | 1.26
CHT | 1.29
CHL | 0.416
CHN | 1.87
CHK | 0.391
CHS | 1.06
CHY | 0.693
CHM | 0.57
CHV | 0.869

Variant | enrichment factor
CHH | 0.932
CHI | 0.272
CHP | 0.602
CHW | 0.458
CHQ | 1.13
YIA | 2.32
YIC | 1.74
PIA | 1.08
PIC | 0.7
HHI | 2.1
HHS | 2.37
HHW | 0.384
HHY | 0.494
HHL | 0.975
HHK | 0.0742
HHP | 0.206
HHH | 1.9
HHM | 1.95
HHT | 1.97
HHV | 2.33
HHN | 1.58
HHR | 0.102
HHQ | 1.52
FIA | 1.62

Variant | enrichment factor
FIC | 1.74
FID | 3.39
FHN | 1.7
FHW | 0.471
FHI | 1.32
FHY | 0.497
FHL | 0.576
FHS | 1.59
FHQ | 2.66
FHH | 1.12
FHK | 0.189
FHV | 2.27
FHM | 1.16
FHR | 0.161
FHT | 1.43
FHP | 0.867
LIC | 1.53
LIA | 1.51
IIA | 0.927
IIC | 0.585
KIA | 2.23
KIC | 1.01
KHI | 1.11
KHV | 1.85

Variant | enrichment factor
KHP | 0.1
KHY | 0.248
KHL | 0.319
KHN | 1.34
KHM | 1.53
KHK | 0.237
KHR | 0.152
KHS | 1.63
KHH | 1.95
KHW | 0.605
KHQ | 1.29
KHT | 1.81
EHW | 0.357
EHQ | 1.41
EHK | 0.165
EHL | 1.68
EHP | 0.196
EHN | 1.32
EHM | 2.34
EHH | 1.83
EHY | 1.34
EHT | 1.33
EHI | 1.7
EHV | 2.02

Variant | enrichment factor
EHS | 1.49
EHR | 0.157
IHR | 0.135
IHW | 1.3
IHP | 0.0959
IHM | 2.42
IHV | 2.12
IHK | 0.253
IHN | 1.19
IHQ | 1.8
IHY | 1.72
IHH | 1.77
IHS | 1.86
IHI | 2.23
IHT | 2.47
IHL | 1.37
GID | 1.63
GIA | 0.807
GIC | 0.72
TIA | 0.881
TIC | 0.901
NIA | 2.32
NIC | 0.61
EIC | 2.03

Variant | enrichment factor
EIA | 2.52
EID | 1.54
YHM | 4.25
YHS | 1.69
YHK | 0.151
YHP | 0.115
YHH | 1.13
YHT | 2.21
YHI | 1.67
YHL | 0.852
YHQ | 4.5
YHV | 2.84
YHR | 0.154
YHY | 0.285
YHW | 0.52
YHN | 1.12
YHG | 1.28
HID | 2.39
HIC | 0.978
HIA | 1.69
QHN | 1.88
QHQ | 1.8
QHK | 0.138
QHT | 2.11

Variant | enrichment factor
QHG | 1.59
QHY | 1.03
QHI | 2.34
QHP | 0.169
QHV | 2.22
QHL | 1.79
QHW | 1.29
QHS | 2.33
QHH | 2.08
QHM | 1.92
QHR | 0.166
SHP | 0.2
SHI | 1.52
SHM | 1.41
SHH | 2.21
SHY | 0.635
SHT | 1.74
SHN | 1.72
SHG | 1.25
SHQ | 1.38
SHR | 0.169
SHS | 2.08
SHV | 2.61
SHK | 0.165

Variant | enrichment factor
SHL | 0.82
SHW | 0.533
SIA | 1.16
SIC | 0.526
MHT | 2.26
MHR | 0.0975
MHV | 1.95
MHY | 0.675
MHP | 0.145
MHS | 2.25
MHQ | 2.06
MHI | 1.69
MHW | 0.385
MHK | 0.11
MHM | 1.89
MHH | 1.97
MHL | 1.27
MHN | 1.59
GHR | 0.108
GHN | 1.1
GHI | 0.386
GHS | 1.25
GHK | 0.188
GHP | 0.195

Variant | enrichment factor
GHH | 0.947
GHY | 0.185
GHM | 1.65
GHL | 0.151
GHV | 1.29
GHW | 0.193
GHQ | 1.59
GHT | 1.01
LHW | 0.895
LHS | 1.42
LHM | 1.87
LHT | 1.47
LHI | 1.99
LHL | 1.85
LHQ | 1.48
LHV | 1.94
LHH | 1.95
LHK | 0.81
LHY | 1.07
LHP | 0.175
LHR | 0.171
LHN | 1.26
MIA | 1.56
MIC | 0.724

Variant | enrichment factor
CIA | 0.515
CIC | 0.607
VIC | 0.759
VIA | 0.406
PHK | 0.147
PHV | 1.54
PHH | 1.4
PHR | 0.201
PHS | 1.86
PHW | 0.892
PHI | 1.84
PHQ | 1.63
PHY | 1.43
PHG | 1.87
PHL | 1.44
PHM | 1.74
PHT | 1.92
PHP | 0.179
PHN | 1.93
AID | 1.66
AIC | 0.756
AIA | 0.69
